Results from PubChem BioAssay AID1477 (National Center for Advancing Translational Sciences (NCATS), 2009).
Fewer than 10 of roughly 230,000 compounds were called active. Inconclusive results, whose numbers are uncertain, are shown with a selection of clear calls. The call rests on the fitted dose curve; in most records, active means well fitted curve in the direction sought with a large enough effect; inconclusive means small, poorly fitted or top-dose-only effect, or effect the other way, or another doubt; inactive means no such curve, though single readings can be large or run the other way. No potency is given beside an inconclusive call; the fits are too rough.

target: Runt-related transcription factor 1 (Homo sapiens) + Core-binding factor subunit beta (Homo sapiens) (UniProt Q01196+Q13951); test: qHTS Assay for Compounds Blocking the Interaction Between CBF-beta and RUNX1 for the Treatment of Acute Myeloid Leukemia; conditions: AlphaScreen CBFb-His/RUNX1-biotin binding, biochemical; series mostly up to 59.8 µM
UniProt Q01196, sequence (Q01196 whole entry, looked up): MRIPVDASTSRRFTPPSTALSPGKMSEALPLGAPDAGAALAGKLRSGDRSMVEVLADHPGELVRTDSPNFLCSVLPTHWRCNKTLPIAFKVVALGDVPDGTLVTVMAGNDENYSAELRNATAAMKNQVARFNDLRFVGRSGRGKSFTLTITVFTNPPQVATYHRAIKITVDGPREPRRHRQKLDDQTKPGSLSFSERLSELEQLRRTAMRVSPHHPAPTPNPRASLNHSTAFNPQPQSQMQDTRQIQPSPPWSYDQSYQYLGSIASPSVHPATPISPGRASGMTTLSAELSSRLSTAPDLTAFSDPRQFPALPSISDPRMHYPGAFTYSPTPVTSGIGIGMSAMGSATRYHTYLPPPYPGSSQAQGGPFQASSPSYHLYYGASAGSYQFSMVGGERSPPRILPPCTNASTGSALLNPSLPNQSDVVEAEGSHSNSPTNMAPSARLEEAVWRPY
UniProt Q01196, sequence (Q13951 whole entry, looked up): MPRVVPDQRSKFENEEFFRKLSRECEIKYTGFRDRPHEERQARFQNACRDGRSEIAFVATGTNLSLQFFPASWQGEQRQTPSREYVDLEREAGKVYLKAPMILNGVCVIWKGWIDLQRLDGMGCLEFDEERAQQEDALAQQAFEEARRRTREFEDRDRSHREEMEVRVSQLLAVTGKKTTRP
Procedure, shortened: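 CBFb-His/RUNX1-biotin, 30 nM each, preincubated 20 min RT; compound 15 min RT; Ni + streptavidin beads 50 ng each, 90 min RT; AlphaScreen read.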

| SMILES | Potency |
| --- | --- |
| CCCCn1c(-c2ccco2)n[nH]c1=S | inconclusive [activator, partial curve, poor fit] |
| CCOc1ccccc1OCCOc1ccc(F)cc1 | inconclusive [activator, partial curve] |
| CC(C)N(C(=O)CSc1nc2ccccc2n1Cc1ccc(F)cc1)C(C)C | inactive |
| COc1cnc(N(C)C)nc1Sc1cccc(Cl)c1 | inconclusive [activator, single point] |
| CC(=C/c1ccco1)/C=N/NC(=O)Cc1cccn1C | inconclusive [inhibitor, single point] |
| COc1cc(C(=O)N/N=C/C2CC=CCC2)cc(OC)c1OC (stereo not given) | inactive |
| CC12C=C(/C=C/CCc3ccco3)C(C)(C1)C(CCc1ccco1)CC2=O (stereo not given) | inconclusive [inhibitor, single point] |
| Cc1nnc(SCc2nnc(-c3cccs3)o2)n1Cc1ccccc1 | inactive |
| COC(=O)N1C2(C=CC1(C)C(=O)NCc1ccc(N(C)C)cc1)CCCCC2 (stereo not given) | inactive |
| Cc1cccc(CC2CC(=O)N(c3nc4ccccc4s3)C2=O)c1 (stereo not given) | inactive |
| CCOC(=O)c1ccc(NC(=O)c2nc[nH]c2C(=O)N[C@@H](CC(C)C)C(=O)OCc2ccccc2)cc1 | inactive |
| N#Cc1nc(COc2ccc(Br)cc2)oc1N1CCN(Cc2ccccc2)CC1 | inconclusive [inhibitor, partial curve] |
| O=C(Nc1nc2ccccc2s1)C1CCN(S(=O)(=O)c2cc([N+](=O)[O-])ccc2Cl)CC1 | inconclusive [inhibitor, single point] |
| O=C(COC(=O)CC(c1ccccc1)c1ccccc1)Nc1cccc(F)c1 | inconclusive [activator, single point] |
| c1ccc(-c2ccc(-c3nccc4ccccc34)[nH]2)cc1 | inconclusive [activator, partial curve] |
| CC(C)CCNC(=O)C(=O)NC1CCCC1 | inactive |
| CC(=O)c1ccc(Sc2nnnn2-c2ccccc2)c([N+](=O)[O-])c1 | inactive |
| O=C(O)c1ccc2nc(-c3ccco3)c(-c3ccco3)nc2c1 | inconclusive [inhibitor, single point] |
| C=C1CCN(C(CC(C)C)C(=O)NCc2ccc(Cl)c(Cl)c2)S(=O)(=O)c2ccccc21 (stereo not given) | inconclusive [activator, partial curve] |
| Clc1ccc(CSc2cc3c(nn2)-c2ccccc2CC3)cc1Cl | inconclusive [activator, single point] |
| O=c1cc(-c2ccccc2O)oc2c1ccc1ccccc12 | inactive |
| O=C(/C=C/c1ccco1)OCc1nnc(-c2ccc(Cl)cc2)o1 | inconclusive [inhibitor, single point] |
| C(=C\c1ccccn1)/c1ccccn1 | inconclusive [inhibitor, single point] |
| O=C(NNc1ccccn1)C(=O)NNS(=O)(=O)c1ccc(F)cc1 | inactive |

| SMILES | Potency |
| --- | --- |
| O=C1c2ccccc2C(=O)c2c(O)ccc(O)c21 | inconclusive [inhibitor, partial curve] |
| CCn1cc(C(=O)O)c(=O)c2cc3c(cc21)OCO3 | inconclusive [activator, partial curve] |
| Cc1cc2ccccc2n1CCNC(=O)c1ccc(S(=O)(=O)N2CCOCC2)cc1 | inconclusive [inhibitor, single point] |
| CC(C)(C)C(=O)NC1(C(F)(F)F)NC(=O)N(Cc2ccccc2)C1=O (stereo not given) | inconclusive [activator, single point] |
| O=C(O)CCN1C(=O)C2C3CC(C2C1=O)C1C(c2ccccc2)c2sc(=O)[nH]c2SC31 (stereo not given) | inactive |
| COc1cc2c(Cc3c4c5c(cc(OC)c(OC)c5c5c(OC)c(OC)ccc35)CCN4C)c3c4c(cc(OC)c(OC)c4c2cc1OC)CCN3C | inconclusive [inhibitor, single point] |
| N#C[C@H]1[C@H](c2ccccc2)[C@](C#N)(C(=O)c2ccccc2)[C@@H]2C=Cc3ccccc3N21 | inconclusive [inhibitor, single point] |
| COC(=O)[C@@]1(Cc2ccc(OC)cc2)[C@H]2c3cc(C(=O)N(C)C)n(Cc4ccc(OC)c(OC)c4)c3C[C@H]2CN1C(=O)c1ccccc1 | inactive |
| Cc1cc(C)c(/C=C2\C(=O)Nc3ccccc32)[nH]1 | inconclusive [inhibitor, partial curve] |
| Cc1nc2c(nnn2Cc2ccccc2)c(=O)[nH]1 | inactive |
| COc1ccc(-c2ccc(C3C4C=CCC(C)C4C(=O)N3Cc3ccccc3)c(F)c2)cc1C (stereo not given) | inactive |
| OC1(c2ccccc2Cl)NN=C2CCCCCN21 (stereo not given) | inactive |
| COc1ccc(/C=C/C(=O)Nc2cccc(S(=O)(=O)N3CCCC3)c2)cc1OC | inactive |
| O=C(Nc1ccc(-c2nnc3n2CCCCC3)cc1)c1cnccn1 | inactive |
| CN(C)c1ccc(/C=N/n2ncc3ccccc32)cc1 | inconclusive [activator, partial curve] |
| Cc1cc2ncn(S(=O)(=O)N3CCCCC3)c2cc1C | inconclusive [activator, partial curve, poor fit] |
| Cc1ccc(C2NC(=O)c3c(sc4c3CCN(C)C4)N2)s1 (stereo not given) | inconclusive [inhibitor, single point] |
| O=C(/C=C/c1ccco1)Oc1cc(Br)cc(/C=N/NC(=O)c2ccccc2O)c1 | inconclusive [inhibitor, single point] |
| O=C(Nc1ccccc1)c1cccnc1NCCc1ccccc1 | inconclusive [activator, single point] |
| Cc1ccc2nc(NC(=O)C3CCN(S(=O)(=O)c4cc([N+](=O)[O-])ccc4Cl)CC3)sc2c1 | inconclusive [inhibitor, partial curve, poor fit] |
| Cc1ccn2c(NC3CCCC3)c(-c3ccccn3)nc2c1 | inconclusive [inhibitor, partial curve] |
| COC(=O)c1ccc(-n2cncn2)c([N+](=O)[O-])c1 | inactive |
| Cc1ccc(Nc2ccc(S(=O)(=O)N3CCOCC3)cc2[N+](=O)[O-])c(C)c1 | inconclusive [inhibitor, partial curve] |
| O=c1cc(-c2ccccc2)nc2c(-c3ccccc3)c(C(F)(F)F)[nH]n12 | inconclusive [activator, partial curve] |

| SMILES | Potency |
| --- | --- |
| Nc1ccccc1S(=O)(=O)NC1=NCCCCC1 | inconclusive [activator, single point] |
| CCn1cc([N+](=O)[O-])c(C(=O)N2N=C(c3ccc(O)c(OC)c3)CC2c2ccccc2O)n1 (stereo not given) | inconclusive [activator, single point] |
| CCOc1cc(CNc2ccc3c(c2)OCCO3)cc(Br)c1OC | inconclusive [inhibitor, single point] |
| CCN(CC)c1ccc(/C=C(\C#N)C(N)=O)cc1 | inactive |
| OC(CNCc1ccccn1)c1ccccc1 (stereo not given) | inconclusive [inhibitor, single point] |
| Cc1cccc(-c2cc3nc4c(c(N5CCOCC5)n3n2)CCCC4)c1 | inconclusive [activator, single point] |
| Cc1cccn2c(Nc3ccccc3)c(-c3ccccn3)nc12 | inconclusive [inhibitor, single point] |
| O=C(CCc1[nH]c2ccccc2c1Sc1ccccc1)NCCO | inconclusive [activator, single point] |
| CCOC(=O)C1=C(N)n2c(s/c(=C\c3ccco3)c2=O)=C(C(=O)OC(C)C)C1c1ccco1 (stereo not given) | inconclusive [inhibitor, single point] |
| Cc1nc(SCC(=O)O)c(C#N)c2c1CCCC2 | inconclusive [inhibitor, single point] |
| N/N=C(/Cc1nc2ccccc2[nH]1)c1ccc([N+](=O)[O-])cc1 | inconclusive [inhibitor, partial curve] |
| Cc1ccc(C)c(NC(=O)C(=O)NCCCN2CCOCC2)c1 | inconclusive [activator, single point] |
| CCSC1=N/C(=C\C=C2/Oc3ccccc3N2CC)C(=O)S1 | inconclusive [inhibitor, single point] |
| CCOC(=O)c1cnc(-c2ccccc2)nc1Oc1ccccc1 | inconclusive [activator, partial curve] |
| CCN(CC)c1ccc(/C=c2\sc3nc4ccccc4n3c2=O)c(O)c1 | inconclusive [activator, partial curve] |
| COc1cc(N/N=C(\C)c2ccc(N)cc2)nc(-c2ccccc2)n1 | inconclusive [inhibitor, single point] |
| O=C(Nc1nnc(-c2ccccn2)o1)c1cccc(Cl)c1 | inconclusive [inhibitor, single point] |
| CC1=C(C#N)C(=O)NC(=O)/C1=C\c1ccc(-c2cc(C)c(C)cc2[N+](=O)[O-])o1 | inconclusive [inhibitor, single point] |
| NC1=NC(=O)/C(=C\c2ccco2)S1 | inconclusive [inhibitor, single point] |
| CCNC(=S)NNC(=O)Cn1nc(C)cc1C | inactive |
| CCCOc1ccc(-c2nc(-c3ccc([N+](=O)[O-])cc3)cs2)cc1 | inactive |
| Cc1nc(Cl)c(Cl)n1CCOc1ccccc1 | inconclusive [inhibitor, single point] |
